Values joined by “and” are separate entries in the source; they are usually repeats but may differ in a detail not shown here. Equal entries are not always repeated. Further values from the same series stand in other lists.
Experiments:
[1] = tested on: WI‐26 VA4 cells stably expressing EV (empty vector); assay: Collagen ELISA in cells stably expressing EV; settings: WI-26 VA4 EV; 300000 nM; replicates of Experiments #1-#4
[2] = tested on: WI‐26 VA4 cells stably expressing PARS1 FA/EA/RL mutant; assay: Collagen ELISA in cells stably expressing PARS1 mutant; settings: WI-26 VA4 Flag-PARS1 FA/EA/RL; 300000 nM; replicates of Experiments #1-#4
WI‐26 VA4 cells [3] = assay: CellTiter‐Glo assay (cytotoxicity)
WI‐26 VA4 cells [4] = assay: Collagen ELISA (secreted pro‐collagen I)

O[C@H]1CCCN[C@@H]1CCCn1cnc2c(Cl)c(Cl)ccc21 [DWN12088]
Collagen level, single replicates [1]: 2.52 % of control and 1.96 % of control and 1.77 % of control and 2.30 % of control and 1.46 % of control and 2.56 % of control and 2.85 % of control and 3.67 % of control
Collagen level, single replicates [2]: 1.71 % of control and 1.29 % of control and 1.22 % of control and 1.04 % of control and 1.28 % of control and 2.00 % of control and 1.09 % of control and 1.35 % of control
CellTiter-Glo % of control (WI‐26 VA4 cells [3]; 10 nM, Experiment #1, replicates, 0.01 µM): 99.24 % of control
CellTiter-Glo % of control (WI‐26 VA4 cells [3]; 10 nM, Experiment #2, replicates, 0.01 µM): 106.35 % of control
CellTiter-Glo % of control (WI‐26 VA4 cells [3]; 30 nM, Experiment #1, replicates, 0.03 µM): 98.78 % of control
CellTiter-Glo % of control (WI‐26 VA4 cells [3]; 30 nM, Experiment #2, replicates, 0.03 µM): 112.66 % of control
CellTiter-Glo % of control (WI‐26 VA4 cells [3]; 100 nM, Experiment #1, replicates, 0.1 µM): 107.72 % of control
CellTiter-Glo % of control (WI‐26 VA4 cells [3]; 100 nM, Experiment #2, replicates, 0.1 µM): 114.66 % of control
CellTiter-Glo % of control (WI‐26 VA4 cells [3]; 300 nM, Experiment #1, replicates, 0.3 µM): 104.28 % of control
CellTiter-Glo % of control (WI‐26 VA4 cells [3]; 300 nM, Experiment #2, replicates, 0.3 µM): 116.85 % of control
CellTiter-Glo % of control (WI‐26 VA4 cells [3]; 1000 nM, Experiment #1, replicates, 1 µM): 96.94 % of control
CellTiter-Glo % of control (WI‐26 VA4 cells [3]; 1000 nM, Experiment #2, replicates, 1 µM): 99.07 % of control
CellTiter-Glo % of control (WI‐26 VA4 cells [3]; 3000 nM, Experiment #1, replicates, 3 µM): 77.92 % of control
CellTiter-Glo % of control (WI‐26 VA4 cells [3]; 3000 nM, Experiment #2, replicates, 3 µM): 82.22 % of control
CellTiter-Glo % of control (WI‐26 VA4 cells [3]; 10000 nM, Experiment #1, replicates, 10 µM): 68.98 % of control
CellTiter-Glo % of control (WI‐26 VA4 cells [3]; 10000 nM, Experiment #2, replicates, 10 µM): 77.22 % of control
CellTiter-Glo % of control (WI‐26 VA4 cells [3]; 30000 nM, Experiment #1, replicates, 30 µM): 35.29 % of control
CellTiter-Glo % of control (WI‐26 VA4 cells [3]; 30000 nM, Experiment #2, replicates, 30 µM): 29.91 % of control
CellTiter-Glo % of control (WI‐26 VA4 cells [3]; 100000 nM, Experiment #1, replicates, 100 µM): 23.83 % of control
CellTiter-Glo % of control (WI‐26 VA4 cells [3]; 100000 nM, Experiment #2, replicates, 100 µM): 18.44 % of control
CellTiter-Glo % of control (WI‐26 VA4 cells [3]; 300000 nM, Experiment #1, replicates, 300 µM): 1.94 % of control and 0.52 % of control
CellTiter-Glo % of control (WI‐26 VA4 cells [3]; 300000 nM, Experiment #2, replicates, 300 µM): 3.65 % of control and 1.39 % of control
CellTiter-Glo % of control (WI‐26 VA4 cells [3]; 1000000 nM, Experiment #1, replicates, 1000 µM): 0.52 % of control and -0.09 % of control
CellTiter-Glo % of control (WI‐26 VA4 cells [3]; 1000000 nM, Experiment #2, replicates, 1000 µM): 0.23 % of control and -0.23 % of control
Efficacy, % of control, single replicate (WI‐26 VA4 cells [4]; 30 nM, 0.03 µM): 97.45 % of control and 107.68 % of control and 96.79 % of control and 97.21 % of control
Efficacy, % of control, single replicate (WI‐26 VA4 cells [4]; 100 nM, 0.1 µM): 99.89 % of control and 106.55 % of control and 91.48 % of control and 90.62 % of control
Efficacy, % of control, single replicate (WI‐26 VA4 cells [4]; 300 nM, 0.3 µM): 98.64 % of control and 105.63 % of control and 105.99 % of control and 111.62 % of control
Efficacy, % of control, single replicate (WI‐26 VA4 cells [4]; 1000 nM, 1 µM): 76.07 % of control and 64.54 % of control and 68.60 % of control and 95.40 % of control and 106.69 % of control
Collagen, % of control (single replicates per experiment) (WI‐26 VA4 cells [4]; 3000 nM, 3 µM): 55.93 % of control and 57.72 % of control and 25.55 % of control and 24.34 % of control and 62.95 % of control and 61.18 % of control
Collagen, % of control (single replicates per experiment) (WI‐26 VA4 cells [4]; 10000 nM, 10 µM): 4.33 % of control and 4.22 % of control and 22.62 % of control and 25.63 % of control and 11.12 % of control and 10.54 % of control and 14.80 % of control and 15.17 % of control
Efficacy, % of control, single replicate (WI‐26 VA4 cells [4]; 10000 nM, 10 µM): 15.01 % of control and 14.97 % of control and 9.45 % of control and 9.83 % of control
Collagen, % of control (single replicates per experiment) (WI‐26 VA4 cells [4]; 30000 nM, 30 µM): 3.30 % of control and 2.75 % of control and 9.40 % of control and 10.24 % of control and 1.82 % of control and 1.68 % of control and 4.46 % of control and 4.03 % of control
Efficacy, % of control, single replicate (WI‐26 VA4 cells [4]; 30000 nM, 30 µM): 4.00 % of control and 4.88 % of control and 3.19 % of control and 3.44 % of control
Collagen, % of control (single replicates per experiment) (WI‐26 VA4 cells [4]; 100000 nM, 100 µM): 2.29 % of control and 3.51 % of control and 8.06 % of control and 7.63 % of control and 0.71 % of control and 1.08 % of control and 2.44 % of control
Efficacy, % of control, single replicate (WI‐26 VA4 cells [4]; 100000 nM, 100 µM): 2.36 % of control and 2.99 % of control and 3.48 % of control and 1.67 % of control and 2.10 % of control
Collagen, % of control (single replicates per experiment) (WI‐26 VA4 cells [4]; 300000 nM, 300 µM): 4.38 % of control

Reference: PMC10331583, “Control of fibrosis with enhanced safety via asymmetric inhibition of prolyl‐tRNA synthetase 1” (EMBO Molecular Medicine, 2023)
